# The other results are listed elsewhere or left out. At the low end of the ranking, values are background and their order means little.
# Biological target: T1, GST-Rok-C97-191 (UniProt O34857)
# T1 sequence: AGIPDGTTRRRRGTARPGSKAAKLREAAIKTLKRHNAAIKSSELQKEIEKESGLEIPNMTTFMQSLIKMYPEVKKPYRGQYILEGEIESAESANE
# Test: protein binding microarray;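 also: rank score from −0.5 (least bound) to 0.5 (best bound)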
# Conditions: Rok is a gene silencer of Bacillus subtilis; high values mean tight binding; most listed sequences are background and not binding sites; double strand, one strand shown
row,Sequence,binding signal [E-score]
1,ACGAACTC,-0.0425
2,AATGCTTG,0.0398
3,ATGGAATC,-0.0254
4,AATTCAAC,0.00661
5,CAGAGCGG,-0.191
6,GTGTCAGA,-0.197
7,ATTTTGAA,0.154
8,GCACCTTA,-0.00958
9,AGAAAGGG,-0.0748
10,GGAGTGCC,-0.247
11,AGATCGCC,-0.156
12,CAAAAGAC,-0.0459
13,CGACTCGA,-0.031
14,GAATATCA,0.071
15,ACACAGGG,-0.1
16,CGCTCCCG,-0.408
17,CGATATAC,0.234
18,ATTTGGCG,-0.0817
19,CCAGCTCG,-0.079
20,GCAATTCC,0.0302
21,AGCGTTTG,0.0655
22,AGATGCTA,0.196

row,Sequence,binding signal [E-score]
1,ACCTAACG,-0.0851
2,ATCGCTCG,-0.0453
3,ACTATACG,0.0223
4,TCGGAGCA,0.0824
5,CTAGGAAG,0.0357
6,ACTCGCCG,-0.26
7,CCAATTCC,0.138
8,GCATGTGA,-0.0721
9,GTCCAGGA,-0.0853
10,AATCGTGC,-0.172
11,ACTTCCTG,-0.045
12,CCGCGAGC,-0.26
13,ACAGCGGC,-0.093
14,AGCTTCCT,-0.0469
15,CAACGACC,-0.0417
16,AAAACTAA,0.255
17,CGGCTTAG,-0.206
18,ACCGACAA,0.126
19,GAACGGTC,-0.0912
20,ACACCTCT,-0.0324
21,CCGATTAA,0.16
22,CTCTGTCA,-0.161

row,Sequence,binding signal [E-score]
1,CGCTGACC,-0.153
2,GTCGGTCA,-0.0215
3,ATGGGCTG,-0.294
4,CCCCACAG,-0.201
5,AGTGACGC,-0.00501
6,GCCTTTAA,-0.213
7,AGGGAATC,-0.0283
8,ATATGTCC,0.138
9,AAGCCCGT,-0.129
10,GCCTACCC,-0.254
11,GAGACCAA,-0.15
12,GCACGGAC,-0.195
13,GCATAATA,0.158
14,CTACCACC,0.285
15,CGTGAAAG,-0.0741
16,AGTATTCA,0.0845
17,AAATGAGT,-0.0693
18,AGGAACGA,-0.162
19,CGCGACAC,-0.15
20,ACACTCCC,-0.108
21,CTAGCCAA,0.106
22,GACGAAGC,-0.17

row,Sequence,binding signal [E-score]
1,AATCGTAT,0.202
2,CTGATCCA,-0.15
3,CTGCCGAC,-0.293
4,ATGGCGCC,-0.143
5,GAAAGACA,-0.0886
6,GCTCCTCC,-0.117
7,CCCCGAGC,-0.0928
8,AGGGTCCA,-0.233
9,CGCAGTCA,-0.135
10,TCCCGAAA,-0.0535
11,AACAGCGA,-0.0418
12,AGTAGTAT,0.368
13,AGTAAGCC,-0.169
14,CATCGATC,-0.0905
15,CCAGCCTC,-0.269
16,GTTGATCA,-0.11
17,CCAGTTCA,0.00993
18,ACAATTTA,0.29
19,GCCTGCCA,-0.249
20,CATCTTCG,-0.0283
21,GTTTGATA,0.106
22,TCAGAGGA,-0.139

# From PMC6212790
